Source: PubChem BioAssay (EPA / NIEHS)
Inconclusive results are not listed. Rule for the calls: active = hit-call score of the fitted dose curve at least 0.9, where 1 is the maximum; inconclusive = response in the unintended direction; inactive = score below 0.9. For part of its entries the source gives two or more results. This list holds those alone. There may be further records. The records of an entry are repeated measurements across runs, samples, wells, individuals or studies.

Biological target: Nuclear receptor subfamily 1 group I member 2 (Homo sapiens) (UniProt O75469)
Assay: ATG_PXR_TRANS: Attagene TRANS-FACTORIAL HepG2 Assay for human Pregnane X Receptor (PXR) (AID 2283008)
Procedure, shortened: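 Multiplexed TRANS reporter panel in HepG2; this component tracks PXR-Gal4-driven reporter mRNA after 24 h dosing, measured by RT-PCR with capillary electrophoresis fluorescence, fitted against DMSO.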

Chain of UniProt O75469 (O75469 whole entry, looked up): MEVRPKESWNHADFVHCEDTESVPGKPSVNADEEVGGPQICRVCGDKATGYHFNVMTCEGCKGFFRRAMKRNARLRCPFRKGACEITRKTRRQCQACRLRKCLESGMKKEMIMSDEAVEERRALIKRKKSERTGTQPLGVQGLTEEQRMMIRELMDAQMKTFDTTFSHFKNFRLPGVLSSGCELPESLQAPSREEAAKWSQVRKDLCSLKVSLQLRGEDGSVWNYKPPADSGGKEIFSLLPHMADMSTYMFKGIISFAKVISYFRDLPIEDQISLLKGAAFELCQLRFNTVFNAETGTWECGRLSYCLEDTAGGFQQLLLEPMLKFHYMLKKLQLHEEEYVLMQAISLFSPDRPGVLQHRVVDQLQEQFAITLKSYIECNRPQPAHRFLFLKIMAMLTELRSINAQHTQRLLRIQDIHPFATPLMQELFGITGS

Question: For `CC1(C)NC(=O)N(c2ccc([N+](=O)[O-])c(C(F)(F)F)c2)C1=O`, which AC50 is on record?
Answer: active: 15.8, 26.8, 27.6, 7.06 µM [separate samples]

Question: `O=C1CCC(C2CCCCC2)CC1` was tested. Which AC50 did it give?
Answer: active: 8.68, 27.2, 15.9, 6.27 µM [separate samples]

Question: `CCCCCCCC[Si](OCC)(OCC)OCC` was tested. Which AC50 did it give?
Answer: active: 9.26, 4.81, 9.15, 26.8 µM [separate samples]
